Like-named read-outs stand apart in the source and are kept apart here.
T1: IL-15 signaling receptor on 32D[pRF770+pRF791] cells (human CD122 plus mouse CD132) (human; mouse, UniProt P14784 27-551; P34902 23-369)
T1 sequence (looked up) 1: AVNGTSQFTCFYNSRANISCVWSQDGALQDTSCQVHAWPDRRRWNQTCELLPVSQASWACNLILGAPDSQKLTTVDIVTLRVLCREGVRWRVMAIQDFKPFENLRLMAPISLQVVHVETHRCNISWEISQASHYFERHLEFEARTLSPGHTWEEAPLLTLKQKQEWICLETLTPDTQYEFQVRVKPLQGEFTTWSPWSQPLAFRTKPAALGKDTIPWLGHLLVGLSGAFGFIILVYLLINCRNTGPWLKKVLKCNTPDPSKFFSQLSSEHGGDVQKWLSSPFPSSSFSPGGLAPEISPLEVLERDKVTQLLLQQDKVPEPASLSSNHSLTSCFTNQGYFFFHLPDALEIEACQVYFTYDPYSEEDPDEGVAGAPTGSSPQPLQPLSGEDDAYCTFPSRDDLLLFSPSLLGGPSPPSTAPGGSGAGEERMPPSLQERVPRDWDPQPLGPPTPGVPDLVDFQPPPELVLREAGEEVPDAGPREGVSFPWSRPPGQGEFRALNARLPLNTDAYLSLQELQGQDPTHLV
T1 sequence (looked up) 2: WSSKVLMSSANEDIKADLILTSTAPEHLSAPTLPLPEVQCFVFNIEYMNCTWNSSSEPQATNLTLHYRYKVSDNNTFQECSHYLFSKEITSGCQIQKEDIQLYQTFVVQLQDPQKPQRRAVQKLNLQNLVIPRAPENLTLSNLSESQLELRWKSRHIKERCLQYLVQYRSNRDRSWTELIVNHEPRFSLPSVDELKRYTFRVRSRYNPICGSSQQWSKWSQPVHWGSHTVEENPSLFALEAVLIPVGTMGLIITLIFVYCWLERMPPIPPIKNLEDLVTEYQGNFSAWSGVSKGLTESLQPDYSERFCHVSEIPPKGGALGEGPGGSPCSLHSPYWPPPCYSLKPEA

T2: mouse PD-1 on doxycycline-induced 32D[pRF770+pRF791] cells (mouse, UniProt Q02242 25-288)
T2 sequence (looked up): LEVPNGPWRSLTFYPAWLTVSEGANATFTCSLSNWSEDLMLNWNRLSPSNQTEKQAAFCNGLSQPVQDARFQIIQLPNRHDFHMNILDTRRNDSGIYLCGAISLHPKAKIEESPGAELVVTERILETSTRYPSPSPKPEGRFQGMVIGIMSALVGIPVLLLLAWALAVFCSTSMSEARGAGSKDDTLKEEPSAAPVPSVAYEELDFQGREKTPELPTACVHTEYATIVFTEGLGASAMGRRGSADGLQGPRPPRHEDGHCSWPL

T3: human IL-2Rβ (human, UniProt P14784 27-240, limits assumed)
T3 construct: also called hIL-2Rβ; IL-2 receptor beta
T3 sequence (looked up): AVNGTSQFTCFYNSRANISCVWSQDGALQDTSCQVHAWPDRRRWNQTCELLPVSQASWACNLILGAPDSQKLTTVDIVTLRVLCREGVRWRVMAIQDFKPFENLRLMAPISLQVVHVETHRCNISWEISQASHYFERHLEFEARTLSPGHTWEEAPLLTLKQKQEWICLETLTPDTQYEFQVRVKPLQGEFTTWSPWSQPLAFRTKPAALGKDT

B1: xmPD-1-hIL15 V49R/E46G (other)
heavy 1: HHHHHHHHGGGGSGSGGEVQLVESGGGLVKPGGSLELSCAASGFTFSSYWMSWVRQAPEKGLEWVAAISPSGGSTYYADSVKGRFTISRDNAKNTLFLQMTSLRSEDTAMYYCAKESWGAYYDLWGQGTTVTVSSASTKGPSVFPLAPCSRSTSESTAALGCLVKDYFPEPVTVSWNSGALTSGVHTFPAVLQSSGLYSLSSVVTVPSSNFGTQTYTCNVDHKPSNTKVDKTVERKCRVRCPRCPAPPVAGPSVFLFPPKPKDTLMISRTPEVTCVVVAVSHEDPEVQFNWYVDGVEVHNAKTKPREEQFNSTFRVVSVLTVVHQDWLNGKEYKCKVSNKGLPSSIEKTISKTKGQPREPQVYTLPPSREEMTKNQVSLTCLVKGFYPSDIAVEWESNGQPENNYKTTPPMLDSDGSFFLYSRLTVDKSRWQQGNVFSCSVMHEALHNHYTQKSLSLSPGK
heavy 2: EVQLVESGGGLVKPGGSLELSCAASGFTFSSYWMSWVRQAPEKGLEWVAAISPSGGSTYYADSVKGRFTISRDNAKNTLFLQMTSLRSEDTAMYYCAKESWGAYYDLWGQGTTVTVSSASTKGPSVFPLAPCSRSTSESTAALGCLVKDYFPEPVTVSWNSGALTSGVHTFPAVLQSSGLYSLSSVVTVPSSNFGTQTYTCNVDHKPSNTKVDKTVERKCEVECPECPAPPVAGPSVFLFPPKPKDTLMISRTPEVTCVVVAVSHEDPEVQFNWYVDGVEVHNAKTKPREEQFNSTFRVVSVLTVVHQDWLNGKEYKCKVSNKGLPSSIEKTISKTKGQPREPQVYTLPPSREEMTKNQVSLTCEVKGFYPSDIAVEWESNGQPENNYKTTPPMLDSDGSFFLYSKLTVDKSRWQQGNVFSCSVMHEALHNHYTQKSLSLSPGSGGGGGTSATATPGA[about 120 residues with changes left out here]
light: DIVMTQSPSSLSVSAGDKVTMSCRASQGISSWLAWYQQKPWQPPKLLIYKASTLESGVPDRFTGSGSGTDFTLTISSVQAEDLAVYYCQQSYSTPWTFGGGTKLEIKGTVAAPSVFIFPPSDEQLKSGTASVVCLLNNFYPREAKVQWKVDNALQSGNSQESVTEQDSKDSTYSLSSTLTLSKADYEKHKVYACEVTHQGLSSPVTKSFNRGEC
notes: not restated for this mutant; also called xmPD-IL15 V49R/E46G; xmPD1-IL15 V49R E46G
B2: xmPD-1-hIL15 V49R (other)
heavy 1: B1 heavy 1
heavy 2: EVQLVESGGGLVKPGGSLELSCAASGFTFSSYWMSWVRQAPEKGLEWVAAISPSGGSTYYADSVKGRFTISRDNAKNTLFLQMTSLRSEDTAMYYCAKESWGAYYDLWGQGTTVTVSSASTKGPSVFPLAPCSRSTSESTAALGCLVKDYFPEPVTVSWNSGALTSGVHTFPAVLQSSGLYSLSSVVTVPSSNFGTQTYTCNVDHKPSNTKVDKTVERKCEVECPECPAPPVAGPSVFLFPPKPKDTLMISRTPEVTCVVVAVSHEDPEVQFNWYVDGVEVHNAKTKPREEQFNSTFRVVSVLTVVHQDWLNGKEYKCKVSNKGLPSSIEKTISKTKGQPREPQVYTLPPSREEMTKNQVSLTCEVKGFYPSDIAVEWESNGQPENNYKTTPPMLDSDGSFFLYSKLTVDKSRWQQGNVFSCSVMHEALHNHYTQKSLSLSPGKGGGGRTSATATPGA[about 120 residues left out here]
light: B1 light
notes: not restated for this mutant; also called xmPD-1-hIL-15V49R fusion; xmPD-IL15 V49R
B3: xmPD-1-hIL15 V49R/E46Q (other)
heavy 1: B1 heavy 1
heavy 2: EVQLVESGGGLVKPGGSLELSCAASGFTFSSYWMSWVRQAPEKGLEWVAAISPSGGSTYYADSVKGRFTISRDNAKNTLFLQMTSLRSEDTAMYYCAKESWGAYYDLWGQGTTVTVSSASTKGPSVFPLAPCSRSTSESTAALGCLVKDYFPEPVTVSWNSGALTSGVHTFPAVLQSSGLYSLSSVVTVPSSNFGTQTYTCNVDHKPSNTKVDKTVERKCEVECPECPAPPVAGPSVFLFPPKPKDTLMISRTPEVTCVVVAVSHEDPEVQFNWYVDGVEVHNAKTKPREEQFNSTFRVVSVLTVVHQDWLNGKEYKCKVSNKGLPSSIEKTISKTKGQPREPQVYTLPPSREEMTKNQVSLTCEVKGFYPSDIAVEWESNGQPENNYKTTPPMLDSDGSFFLYSKLTVDKSRWQQGNVFSCSVMHEALHNHYTQKSLSLSPGSGGGGGTSATATPGA[about 120 residues with changes left out here]
light: B1 light
notes: not restated for this mutant; also called xmPD1-IL15 V49R/E46Q

How the values were obtained:
[1] = target: T1, IL-15 signaling receptor on …; assay: cell-based or functional assay
[2] = target: T2, mouse PD-1 on doxycycline-induced …; assay: cell-based or functional assay
[3] = target: T4, human IL-15Rα (human, UniProt Q13261 31-205, limits assumed); assay: SPR 37C, fusion captured by anti-human Fc
T4 construct: also called hIL-15Rα; IL-15 receptor alpha
Procedure: (§1) Anti-human Fc sensor chips were prepared at 25° C. with a running buffer of 10 mM HEPES, 150 mM NaCl, 0.05% (v/v) Tween-20, pH 7.4. All surfaces of a Biacore CM4 sensor chip were activated with a 1:1 (v/v) mixture of 400 mM EDC and 100 mM NHS for 7 minutes, at a flow rate of 10 μL/min. An anti-human Fc reagent (Goat anti-human IgG Fc-γ specific, SouthernBiotech, Birmingham, Ala., Catalog #2014-01) was diluted to 50 μg/mL in 10 mM sodium acetate (pH 4.5) and injected on all flow cells for 7 minutes at 20 μL/min. All flow cells were blocked with 100 mM ethylenediamine in 200 mM Borate buffer pH 8.5 for 7 minutes at 10 μL/min.
(§2) All protein interaction experiments were performed at 37° C. using a running buffer of 10 mM HEPES, 150 mM NaCl, 0.05% (v/v) Tween-20, pH 7.4, 1 mg/mL BSA. Anti-PD-1-hIL-15 fusion proteins were captured at 10 μg/mL at a flow rate of 10 μL/min for 2 minutes. Different fusion proteins were captured in flow cells 2, 3 and 4. No protein was captured onto flow cell 1 which was used as a reference surface. […] After each analyte injection, dissociation was monitored for 5 minutes followed by regeneration of all flow cells with three 60-second injections of 75 mM phosphoric acid. […] For kinetic analysis, the double-referenced sensorgrams were fit globally to a simple 1:1 Langmuir with mass transport binding model using Biacore T200 Evaluation Software version 2.0. For steady-state affinity analysis, the double-referenced equilibrium binding responses were fit with a 1:1 Langmuir steady-state model using Biacore T200 Evaluation Software version 2.0.

[4] = target: T3, human IL-2Rβ; assay: SPR, steady state, fusion captured
Procedure: as §1, §2

[5] = target: T1, IL-15 signaling receptor on …; assay: cell-based or functional assay; remark: listed apart in the source
[6] = target: T2, mouse PD-1 on doxycycline-induced …; assay: cell-based or functional assay; remark: listed apart in the source
[7] = target: T1, IL-15 signaling receptor on …; assay: cell-based or functional assay; remark: listed apart in the source
[8] = target: T2, mouse PD-1 on doxycycline-induced …; assay: cell-based or functional assay; remark: listed apart in the source
[9] = target: T4, human IL-15Rα; assay: SPR, steady state, fusion captured
Procedure: as §1, §2

T4 sequence (Q13261 31-205 limits assumed): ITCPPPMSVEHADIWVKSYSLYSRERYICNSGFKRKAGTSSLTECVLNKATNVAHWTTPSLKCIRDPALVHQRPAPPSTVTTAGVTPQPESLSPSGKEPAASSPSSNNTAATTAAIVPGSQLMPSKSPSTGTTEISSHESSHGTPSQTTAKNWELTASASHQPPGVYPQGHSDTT

Binder	pSTAT5 EC50 on PD-1(low) 32D reporter cells [1] [nM]	Fold change = EC50 (PD-1(low))/EC50 (PD-1+) [2] [fold]	pSTAT5 EC50 on PD-1+ 32D reporter cells [2] [pM]	binding result [3]	Kd [4] [nM]	pSTAT5 EC50 on PD-1(low) 32D reporter cells [5] [nM]	Fold change = EC50 (PD-1(low))/EC50 (PD-1+) [6] [fold]	pSTAT5 EC50 on PD-1+ 32D reporter cells [6] [pM]	pSTAT5 EC50 on PD-1(low) 32D reporter cells [7] [nM]	Fold change = EC50 (PD-1(low))/EC50 (PD-1+) [8] [fold]	pSTAT5 EC50 on PD-1+ 32D reporter cells [8]	Kd [9] [nM]
B1	4.54	384	11.8	no binding (tested: 3000 nM)	437	3.43	230	14.9	–	–	–	–
B2	0.328	5.89	55.7	–	494	1.51	27.6	54.8	4.38	26.8	0.163 nM	119
B3	–	–	–	no binding (tested: 3000 nM)	560	–	–	–	1.33	455	2.94 pM	–
